The other results are listed elsewhere or left out. Cut-off read from the data, not from the text of the source: active = 3.2 or more and inactive = the rest. The signal is at background level for most entries.
B1: KRT8_Y54_G53V (peptide)
chain: GLGGVYGGASG
B2: KRTAP20-2_Y13 (peptide)
chain: YGGLRYGYGVL
B3: KRTAP20-2_Y13_V17G (peptide)
chain: YGGLRYGYGGL
B4: KRTAP20-2_Y13_V17G_YF (peptide)
chain: FGGLRYGFGGL
B5: KRTAP20-2_Y15 (peptide)
chain: GLRYGYGVLGG
B6: KRTAP20-2_Y15_V17G (peptide)
chain: GLRYGYGGLGG
B7: KRTAP20-2_Y15_YF (peptide)
chain: GLRFGYGVLGG
B8: L1CAM_Y418_A415P (peptide)
chain: LLPNAYIYVVQ
B9: L1CAM_Y418_V421D_YF (peptide)
chain: LLANAYIFDVQ
B10: L1CAM_Y418_YF (peptide)
chain: LLANAYIFVVQ
B11: L1CAM_Y420 (peptide)
chain: ANAYIYVVQLP
B12: L1CAM_Y420_V421D (peptide)
chain: ANAYIYDVQLP
B13: L1CAM_Y420_YF (peptide)
chain: ANAFIYVVQLP
B14: L2HGDH_Y102 (peptide)
chain: IHSGIYYKPES
B15: L2HGDH_Y102_H98R (peptide)
chain: IRSGIYYKPES
B16: L2HGDH_Y102_H98Y (peptide)
chain: IYSGIYYKPES
B17: L2HGDH_Y103_H98R_YF (peptide)
chain: RSGIFYKPESL
B18: L2HGDH_Y103_H98Y_YF (peptide)
chain: FSGIFYKPESL
B19: LACTB_Y473 (peptide)
chain: ERKQTYGSCRK

Target: SHP2 C-SH2 domain E139D
Assay: enrichment score (SH2-bound / input frequency) (ratio); bacterial display of known human phosphotyrosine sites (pTyr-Var adds point mutants) read by sequencing; higher = stronger binding; tyrosines were phosphorylated by kinases first
Details: peptide library: pTyr-Var
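Note: displayed peptides selected on beads carrying the immobilized SH2 domain, with library peptides lacking any tyrosine serving as negative controls.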

Enrichment score, inactive:
B1 0.604, B2 0.789, B3 1, B4 1.16, B5 1.06, B6 0.841, B7 1.03, B8 0.772, B9 1.48, B10 0.914, B11 1.44, B12 0.762, B13 1.22, B14 1.4, B15 0.903, B16 1.44, B17 1.13, B18 1.98, B19 1.48

Target: SHP2 C-SH2 domain wild-type
Assay: as above
Details: peptide library: pTyr-Var

Enrichment score, inactive:
B1 0.658, B2 0.852, B3 0.841, B4 0.936, B5 0.923, B6 0.786, B7 1.08, B8 0.873, B9 1.22, B10 1.25, B11 1.19, B12 1.38, B13 1.15, B14 1.06, B15 0.702, B16 1.29, B17 1.04, B18 1.54, B19 1.24

Target: SHP2 N-SH2 domain L43F
Assay: as above
Details: peptide library: pTyr-Var

Enrichment score, inactive:
B1 0.599, B2 0.794, B3 0.853, B4 0.812, B5 0.878, B6 0.88, B7 0.994, B8 0.664, B9 1.25, B10 1.31, B11 1.34, B12 0.686, B13 1.19, B14 1.16, B15 1.06, B16 1.44, B17 1.88, B18 1.76, B19 1.04

Target: SHP2 N-SH2 domain T42A
Assay: as above
Details: peptide library: pTyr-Var

Enrichment score, inactive:
B1 0.607, B2 0.663, B3 0.757, B4 0.784, B5 0.841, B6 0.659, B7 0.924, B8 0.709, B9 1, B10 0.828, B11 1.21, B12 0.691, B13 0.984, B14 1.28, B15 0.81, B16 1.63, B17 1.25, B18 1.95, B19 1.15

Target: SHP2 N-SH2 domain T52S
Assay: as above
Details: peptide library: pTyr-Var

Enrichment score, inactive:
B1 0.596, B2 0.787, B3 0.8, B4 0.815, B5 0.9, B6 0.846, B7 1.03, B8 0.661, B9 1.36, B10 0.913, B11 0.952, B12 1.23, B13 0.919, B14 1.47, B15 0.885, B16 1.75, B17 1.29, B18 1.88, B19 1.23

Target: SHP2 N-SH2 domain wild-type
Assay: as above
Details: peptide library: pTyr-Var

Enrichment score, inactive:
B1 1.05, B2 0.933, B3 0.904, B4 1.29, B5 0.945, B6 0.698, B7 0.891, B8 0.876, B9 1.49, B10 1.64, B11 1.28, B12 0.865, B13 1.14, B14 1.21, B15 0.851, B16 1.15, B17 1.37, B18 1.67, B19 1.13

— the supplement of paper PMC10369915
